The list shows a part of the results.
Columns and labels:
HSkMC = human skeletal muscle cells; assay: cytotoxicity call (relative viability < 0.9); conditions: 10 µM
S. aureus RN4220 = assay: growth inhibition call (relative growth <= 0.2); conditions: 50 µM

C[C@@H]1CN([C@H](C)CO)C(=O)c2ccccc2-c2ccccc2CO[C@@H]1CN(C)C(=O)Nc1ccccc1C(F)(F)F
cytotoxicity call (HSkMC): inactive
growth inhibition call (S. aureus RN4220): inactive

COCC#Cc1ccc2c(c1)O[C@@H](CN(C)C(=O)C1CCCCC1)[C@@H](C)CN([C@H](C)CO)S2(=O)=O
cytotoxicity call (HSkMC): inactive
growth inhibition call (S. aureus RN4220): inactive

CCCN1C[C@H](C)[C@@H](OC)CN(C)C(=O)c2cc(NS(=O)(=O)c3cn(C)cn3)ccc2OC[C@H]1C
cytotoxicity call (HSkMC): inactive
growth inhibition call (S. aureus RN4220): inactive

C[C@H](CO)N1C[C@H](C)[C@H](CN(C)C)OCCCC[C@H](C)Oc2ccc(NC(=O)Nc3cccc4ccccc34)cc2C1=O
cytotoxicity call (HSkMC): inactive
growth inhibition call (S. aureus RN4220): inactive

Nc1ncnc2c1ncn2[C@@H]1O[C@H](COP(=O)(O)O)[C@@H](O)[C@H]1O
cytotoxicity call (HSkMC): inactive
growth inhibition call (S. aureus RN4220): inactive

C[C@@H]1CCCCO[C@@H](CN(C)C(=O)C2CCCCC2)[C@H](C)CN([C@H](C)CO)C(=O)c2cc(NC(=O)c3ccncc3)ccc2O1
cytotoxicity call (HSkMC): inactive
growth inhibition call (S. aureus RN4220): inactive

C[C@@H]1CCCCO[C@@H](CN(C)Cc2ccc(C(F)(F)F)cc2)[C@@H](C)CN([C@@H](C)CO)C(=O)c2cc(NC(=O)Nc3ccc(F)cc3)ccc2O1
cytotoxicity call (HSkMC): inactive
growth inhibition call (S. aureus RN4220): inactive

C[C@@H]1CCCCO[C@@H](CN(C)Cc2ccccc2)[C@H](C)CN([C@@H](C)CO)C(=O)c2cc(NS(=O)(=O)c3ccc(Cl)cc3)ccc2O1
cytotoxicity call (HSkMC): inactive
growth inhibition call (S. aureus RN4220): inactive

N[C@@H](Cn1ccnc1)c1ccccc1
cytotoxicity call (HSkMC): inactive
growth inhibition call (S. aureus RN4220): inactive

Nc1cccc(-n2cc(CCC(=O)NO)nn2)c1
cytotoxicity call (HSkMC): inactive
growth inhibition call (S. aureus RN4220): inactive

O=C1N(Cc2ccccc2)Cc2ccccc2C[C@]12N=C(c1ccc(OCCCO)cc1)O[C@@H]2c1ccccc1
cytotoxicity call (HSkMC): inactive
growth inhibition call (S. aureus RN4220): inactive

C[C@H]1CN([C@@H](C)CO)C(=O)Cc2cc(NC(=O)CCCN(C)C)ccc2O[C@@H]1CN(C)C(=O)NC1CCCCC1
cytotoxicity call (HSkMC): inactive
growth inhibition call (S. aureus RN4220): inactive

O=C(NCC(F)(F)F)[C@@H]1c2ccccc2C(=O)N(Cc2cc(C(F)(F)F)cc(C(F)(F)F)c2)[C@H]1c1ccc(CO)cc1
cytotoxicity call (HSkMC): inactive
growth inhibition call (S. aureus RN4220): inactive

Cc1ccc(S(=O)(=O)Nc2ccc3c(c2)C(=O)N([C@@H](C)CO)C[C@@H](C)[C@@H](CN(C)C(=O)CCC(F)(F)F)OCCCC[C@@H](C)O3)cc1
cytotoxicity call (HSkMC): inactive
growth inhibition call (S. aureus RN4220): inactive

C[C@H](CO)N1C[C@H](C)[C@H](CN(C)C(=O)Nc2ccccc2)Oc2ccc(NC(=O)CCN3CCOCC3)cc2CC1=O
cytotoxicity call (HSkMC): inactive
growth inhibition call (S. aureus RN4220): inactive

COc1ccc(S(=O)(=O)N(C)C[C@@H]2Oc3ccc(NC(=O)Nc4cccc5ccccc45)cc3C(=O)N([C@@H](C)CO)C[C@H]2C)cc1
cytotoxicity call (HSkMC): active
growth inhibition call (S. aureus RN4220): inactive

CC(C)C#Cc1ccc2c(c1)O[C@@H](CN(C)C(=O)Cc1ccccn1)[C@@H](C)CN([C@@H](C)CO)S2(=O)=O
cytotoxicity call (HSkMC): inactive
growth inhibition call (S. aureus RN4220): inactive

C[C@@H]1CN([C@@H](C)CO)C(=O)c2cc(NS(=O)(=O)c3cn(C)cn3)ccc2O[C@@H](C)CCCCO[C@H]1CN(C)C
cytotoxicity call (HSkMC): inactive
growth inhibition call (S. aureus RN4220): inactive

C[C@H]1CN([C@@H](C)CO)C(=O)c2cc(NC(=O)CCC(F)(F)F)ccc2O[C@H]1CN(C)Cc1ccc(Cl)c(Cl)c1
cytotoxicity call (HSkMC): inactive
growth inhibition call (S. aureus RN4220): inactive

C[C@@H]1CCCCO[C@@H](CN(C)Cc2ccccc2)[C@@H](C)CN([C@@H](C)CO)C(=O)c2cc(NC(=O)Cc3ccccc3)ccc2O1
cytotoxicity call (HSkMC): inactive
growth inhibition call (S. aureus RN4220): inactive

OC[C@@H](O)CN1CCN(c2ccccc2)CC1
cytotoxicity call (HSkMC): inactive
growth inhibition call (S. aureus RN4220): inactive

COCC#Cc1ccc([C@H]2[C@@H](CO)N3C(=O)CN(C(=O)C4CCOCC4)C[C@H]23)cc1
cytotoxicity call (HSkMC): inactive
growth inhibition call (S. aureus RN4220): inactive

C/C=C/c1cnc2c(c1)C(=O)N([C@@H](C)CO)C[C@H](C)[C@@H](CN(C)S(=O)(=O)c1ccc(OC)cc1)O2
cytotoxicity call (HSkMC): inactive
growth inhibition call (S. aureus RN4220): inactive

COCC(=O)N1C[C@@H](C)[C@H](OC)CN(C)C(=O)c2ccc(NC(=O)c3ccc(OC)cc3)cc2OC[C@@H]1C
cytotoxicity call (HSkMC): inactive
growth inhibition call (S. aureus RN4220): inactive

Source: the antibiotic and cytotoxicity screens of Wong et al. (2023)
